Measurements from the supplement of paper PMC12632987.
Over roughly 2,300 sequences, “median log2 fold change of GCK-ALFA target abundance (FLAG IP / Myc IP barcode read proportion)” has its median near 0.095; the lowest 2% begin near -0.47. Some of the results follow.

B1: LC3A_3_1519 (protein)
chain: SDEIIKETLKKLKEAGKSEEVLKAAEEALNKLKEKGYEEALKVAAEEAEKMLDLPDELLLDFFNDVLELVENEDLSEEELIEEIKRLARIYKSEGEIEEL
B2: LC3A_3_1743 (protein)
chain: MEEKLEEIREELEELGFSEELIEAALEVVELLLERGFEEAVETLLEELKKLKDVPDEILIAMLEDIKQLVLTQDLNEEEVIEEIKREARVARSESEIIEL
B3: LC3A_3_1645 (protein)
chain: MEEEVEETLELLREAGASEETLEAFRRLAELLKERGFEEALKTLIEEVRKLKDLPSELLLDFLEEVLYVVETEDLNEEELIEEIKRIARVTRNESEIIEL
B4: LC3A_3_1638 (protein)
chain: MEEEIEETEKLLKEAGHSEEVIEAFRKTAELLKEKGYYNALKELIEEMKKLKDLPDDILLAMLEEVRAVVEKPDKTEEEVIKEIKEIATIARNEGEIIEL
B5: LC3A_28_1031 (protein)
chain: SALEASAAAALAEAEAQFKAGEEAVVTLDVGDVDTETARAVVTAFLKELIALSKKYGGVKVSVVINYDGDQETLNAIIDAAEAAEAADPNLTVIIAYPDR
B6: LC3A_17_590 (protein)
chain: SEEIREELEELLKELKELIKEAKKLGIPEAKEVEKLLKEAEKALKEGKLREAAELLREAADLLADALEEIEEELGSKASVLEMEANGLALRAEGILLKLE
B7: LC3A_147_468 (protein)
chain: YITEVDIDILTKNKEEEVIEAIKEIAEELKEEGYEVELEIKTEKLEDGSTYIEATITIKTETEEEAKKAADKVIERLEEMEEKLKDEILGSLISVEITKE
B8: LC3A_78_2085 (protein)
chain: MKVTIIVYSEEAKEEAEEIAAKITDADEILLGLHEELEELLEKVKDADEIEVIIVAPTLDLADELEEKVKEFFKDRKISSISEIDEETGIVTTYIYIEKK
B9: LC3A_3_1360 (protein)
chain: SDELIEETLKFLKEKGKSEETLKAVRETLEALKEKGYENAAKTFVELLKELADLPDELLLDLAEDVLKAVKEKDLSEEELIEFIKNEASVARNEAEIEEL
B10: LC3A_17_584 (protein)
chain: SEEIKKEIKELLKKLEELIKKLKEHGVPEAKEIQKLLEEAKKALEEGKLKEAAELLAEAADLAADAFAEIEDELGDEAELLEMEASGLELEAIGLLLKLE
B11: LC3A_free_8_2459 (protein)
chain: DVDALKAAISAAFDAFEDELTAKMKAAGKSQSDINYMEVLVGEAEMAVMDTAEDDPAKTLEVAKEEFAEIIAAAAEISPELAAFAKELAAKVLAAIEAAL
B12: LC3A_free_46_2330 (protein)
chain: VILEIDIDLLHEDEEKMKKAVEEIEKAAKEIAKEYGAEIEIEVEISKLEDGSYFARIKITVKAETLETAQKIRDDLIDKFEEIATKYGIAMIISYEIIEE
B13: LC3A_3_1467 (protein)
chain: EHPLLRELRAALRARGVPEEAIERIVEAARETEKYGVLEVAVEGLLEALEDPRATPEKLVEIAERLRELVEKEGLTPEEAREEFKVLFLEEVEIEEIDEE
B14: LC3A_free_39_2268 (protein)
chain: SEEELKKYKEELLKEVAPLSPEAQANVKEILKLVEGNVELVKTLLELVKKAKEEGADVEAFIAEALKLVKKMKEEGKSNEEIIKELKELANDFINLIPID
B15: LC3A_3_1703 (protein)
chain: GEELLEEAREIAEKQGLSEETIEAVLEALKALLERGYEEAAKTFIELLKEAKDLSDEILLDLAEDVKYFVETEDANEEEVIEFIKEEYQIAINDQEIEEL
B16: LC3A_3_1608 (protein)
chain: SEALVAAQLARLAAAGLSPAVLAAARKVLEALAAKGFEEAAKTLTDELLALRDLPDERLLAMLEEILAKVETEDLDEEEVIKLIKEEARVARLEAEIEEL
B17: LC3A_128_231 (protein)
chain: SELLEDLKEEAKRAKEVAEELKKIPSVKELAEETIKAAEELIKLIEEGAPLEEIKKAAKEFIEKAKKLIEALKKDPNADKVLVNDLEIEVANIEDLLEKL
B18: LC3A_3_1802 (protein)
chain: MEEKIEELLKELKEAGKSEETIEAVRKALELLKERGYEEALETFIEKLRELIDVPDELLLALAQEVLEYLETEDASEEEVKEFIEEEARLTRLESEIIEL
B19: LC3A_147_409 (protein)
chain: WLVEVDVDILTRDAEEEVIEAFRELAERLREKGYEVELEIEVEKLPNGETYIEVRIRIRAETEEEAKAAAQEVLDHIDELEERLKDKILGSLISVEIEKE

Target: MAP1LC3A, Q9H492
Assay: median log2 fold change of GCK-ALFA target abundance (FLAG IP / Myc IP barcode read proportion) (log2 ratio); each designed protein is fused to an ALFA-tag nanobody in HEK293 cells to bring the named protein to FLAG-tagged glucokinase (GCK); Myc marks an untargeted standard; higher = target protein stabilised (more abundant)
Details: target protein: 3xFLAG-MCP-GCK-ALFA reporter; HEK293 landing pad (RPLP)
Procedure, shortened: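 Binders fused to an ALFA nanobody were recombined as a library into HEK293 landing-pad cells, which were induced with 2 μg mL^−1 doxycycline and then transfected to express a FLAG-tagged target and a Myc-tagged standard. After 48 h, circular RNA barcodes recovered by anti-FLAG and anti-Myc immunoprecipitation of lysates were reverse transcribed, amplified and sequenced. Each binder's target abundance is the median log2 ratio of FLAG to Myc barcode read proportions, from barcodes present at ≥10^−7 in both replicates, binders carrying ≥3 barcodes per replicate, a 10^−6 pseudocount and pooled replicates.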

Row | Binder | median log2 fold change
1 | B1 | 0.302
2 | B2 | 0.0801
3 | B3 | -0.0927
4 | B4 | 0.298
5 | B5 | 0.0201
6 | B6 | 0.0276
7 | B7 | 0.3
8 | B8 | 0.024
9 | B9 | 0.297
10 | B10 | 0.068
11 | B11 | -0.097
12 | B12 | 0.0805
13 | B13 | 0.176
14 | B14 | 0.355
15 | B15 | -0.0778
16 | B16 | 0.316
17 | B17 | -0.0583
18 | B18 | 0.0528
19 | B19 | -0.108
